The RNAGym collection of RNA variant scans (doi:10.1093/nar/gkz1192)
The source gives no read counts; variants with many changes may rest on few reads.

B1: CPEB3 Ribozyme (parent)
chain: UAACAGGGGGCCACAGCAGAAGCGUUCACGUCGCAGCCCCUGUCAGAUUCUGGUGAAUCUGCGAAUUCUGCUGUAUAUCUC

Variants of: B1
Experiment: self-cleavage, relative activity (ratio to wild type); higher = more cleavage; in vitro, sequencing
How it was run: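 For each CPEB3 ribozyme variant, relative activity is its cleaved/total read fraction divided by the unmutated ribozyme's. Barcoded error-prone PCR libraries were transcribed by T7 RNA polymerase (5 hours, 37°C) and held in DNase I for 15 min before an EDTA stop, with cleavage occurring throughout. Template-switching reverse transcription and Illumina sequencing were used to read the RNAs. A 5-read minimum applied, and results are the mean of three batches.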

Row | Variant | self-cleavage
1 | UAAGAGGGGGCCACAGCAGAAGCGUUCAUGUCGCAGCUCCUGUCAGAUUCUGGUGAAUCUGCGAACACUGCUGUAUAUCUC [C4G C29U C38U U66C U67A] | 0.48
2 | UAAUAGGGGGCCACAGCAGAAGCGUACACGUCGCAGCCCCUGUCAGAUACUGGUGAAUCUGCGAAUUCUGCUGUAUAUCUC [C4U U26A U49A] | 0.65
3 | UAAGAGGGGGCCACAGCAGAAGCGUUCCCGUCGCAGCCCCUGUCAGAUUCUGGUGAAUCUGCGAAUUCUGCUGUAAAUCUC [C4G A28C U76A] | 0.88
4 | UAAUAGGGGGCCACAGCAGAAGCGUUCACGUCGCGGACCCUGUCAGAUUCUGGUGAAUCUGCGAACUCUGCUGUAUAUCUC [C4U A35G C37A U66C] | 0.33
5 | UAAGAGGAGGCCUCAGCAGAAGCGUUCACGUCACAGCCCCUGUCAGAUUCUGGCGAAUCCGCGAAUUCUGCUGUAUACCUC [C4G G8A A13U G33A U54C U60C U78C] | 0.05
6 | UAAUAGGGGGCCACAGCGGAAGCGUUCACGUCGCAGCCCCUGUCGGAAUCUGGUGAAUCUGCGAAUUCUGCCGUAUAUCUC [C4U A18G A45G U48A U72C] | 0.14
7 | UAAUAGGAGGCCACAGCAGAGGCGUUCACGUCGUAGCCCCUGUCAGAUUCUGGUGAAUCUGCGAAUUCUGCUGUAUAUCUC [C4U G8A A21G C34U] | 0.08
8 | UAAUAGGAGGCCACAGCGGGAGCGUUUACGUCGCAGCCCCUGUCAGAUUCUGGUGAAUCUGCGAAUUCUGUUGUAUAUCUC [C4U G8A A18G A20G C27U C71U] | 0.05
9 | UAAGAGGGGGCCAUGGCAGAAGCGUUCACGUCGCAGCCCCUGUCAGAUUCUGGUGAAUCUGCGGAUUCUGCUAUAUAUCUC [C4G C14U A15G A64G G73A] | 1.29
10 | UAAUAGGGGGCCACAGCAGAGGCGUUCACGUCGCAGCCCCAGUCAGAUUCUGGAGAAUCUGCGAAUUCUGCUGUAUAUCCC [C4U A21G U41A U54A U80C] | 0.53
11 | UAAUAGGGGGCCACAGCAGAAGCGUCCACGUCGCAGCCCCAGUCAGAUCCUGGUGAAUCUGCGGAUUCUGCUGUAUAUCUC [C4U U26C U41A U49C A64G] | 0.3
12 | UAAUAGGGGGCCACAGCAGAAGCGUUCACGCCGUAGCCCCUGUCAGAUUCUGGUGAAUCUGCGAAUUCUGCUGUAUACCUC [C4U U31C C34U U78C] | 0.2
13 | UAAGAGGGGGCCACAGCAGAGGCGUUCACGUCGCAGCCCCUGUCAGAUUCUGGUGAGUCUGCGAAUUCUGCUGUAUAUCUC [C4G A21G A57G] | 0.81
14 | UAAUAGGGGGCCACAGCAGAAGCGUUCACGUCGCAGCCCCUGUCUGAUUCUGGUGAAACUGCGAAUUCUGCUGUAUAUCUC [C4U A45U U58A] | 0.21
15 | UAAUGGGGGGCCACAGCAGAAGCGUCCACGUCGCAGCCCCUGUCAGAUUCUGGUGAGUCUGCGAAUUCUGCUGUAUAUCUC [C4U A5G U26C A57G] | 0.29
16 | UAAAAGGGGGCCACAGCAGAAGCGUUCACGUCGCAGCCCCCGUCAGAUUCUGGUGAAUCUGCGAAUUCUGCUGUAUACCUC [C4A U41C U78C] | 1.18
17 | UAAUAGGGGGCCACAGCAGAAGCGUACACGUCGCAGCCCCUGUCAGAUUCUGGUGAAUCCGCGAAUUCUGCUGUAUACCUC [C4U U26A U60C U78C] | 0.77

Row | Variant | self-cleavage
18 | UAAUAAGGGGCCACAGCAGAAGCGUUCACGUCGCAGACCCUGUCGGAUUCUGGUGAAUCUGCGAAUUCUGCUGUAUAUCUC [C4U G6A C37A A45G] | 0.11
19 | UAAGAGGGGGCCACAGCAGGAGCGUUCACGUCGCAGCCCCUGUCAGAUUCUGGUGAAUCUGCGAAUUCAGCUGUAUAUCUC [C4G A20G U69A] | 0.55
20 | UAAAAGGGGGCCACAGGAGAAGCGUUCACGUCGCAGCCCCUGUCAGAUUCUGGUGAAUCAGCGAAUUCUGCUGUAUAUCUC [C4A C17G U60A] | 0.28
21 | UAAUAGGGGGCCACAGCAGGAGCGUUCACGUCGCAGCCCCUGUCAGAUUCUGGUGAAUCUGCGAACUCUGCUGUGUAUCUC [C4U A20G U66C A75G] | 0.24
22 | UAAUAGGGGGCUACAGCAGAAGCGUUCACGUCGCAGCCCCUGUCAGAUUCUGGUGAAUCUGCGGAUUCUGCUGUAUAUCUC [C4U C12U A64G] | 1.3
23 | UAAUAGGGGGCCACAGCAGAAGCGCUCACGUCGCACCCCCUGUCAGAUUCUGGAGAAUCUGCCAAUUCUGCUGUAUACCUC [C4U U25C G36C U54A G63C U78C] | 0.1
24 | UAAAAGGGGGCCACAGCAGAAGCGUUCACGUCGCAGCACCUGUCAGAUUCUGGUGAAUCUGCGAACUCUGCUGUAUAUCUC [C4A C38A U66C] | 0.16
25 | UAAGAGGGGGCCUCAGCAGAAGCGUUCACGCCGCAGCCCCUGUCAGAUUCUGGUGAAUCUGCGAAUCCUGCUGUAUAUCUC [C4G A13U U31C U67C] | 0.19
26 | UAAGAGGGGGCCACAGCGGGAGGGUUCACGUCGCAGCCCCUGUCAGAUUCUGGUGAAUCUGCGAAUUCUGCUGUAUAUCUC [C4G A18G A20G C23G] | 0.11
27 | UAAAAGGGGGCCACAGCAGAAGCGUUCACGUCGCUGCCCCUGUCAGAUUCUGGUAUUCCCGCGAAUUCUGCUGUAUAUCUC [C4A A35U G55A A56U A57U U58C U60C] | 0.12
28 | UAAUAGGGGGCCACAGCAGAGGCGUUCACGUCGCAGCCCCUGUCAGAUGCUGGCGAGUCUGCGAAUUCUGCCGUAUUUCUC [C4U A21G U49G U54C A57G U72C A77U] | 0.25
29 | UAAGAGGGGUCCACAGCGGAAGCGUUCACGUCGCAGCCCCUGUCAGAUUCUGGAGAAUCUGCGACUUCUGCUGUAUAUCUC [C4G G10U A18G U54A A65C] | 0.08
30 | UAAUAGGGGGCCACAGCAGGAGCGUUCACUUCGCAGCCCCUGUCAGAUACUGGUGUAUCUGCGAAUUCUGCUGUAUAUCCC [C4U A20G G30U U49A A56U U80C] | 0.17
31 | UAAUAGGGGGCCUCAGCAGAAGCGUUCACGUCGCGGCCCCUGUCAGAUUCUGGUGAAUCUGCGAAUUCUGCUGUAUAUCUC [C4U A13U A35G] | 1.37
32 | UAAUAGGGGGCCACAGCAGGAGCGUUCCCCUCGCAGCACCUGCCAGAUUCUGGUGAAUCUGCGAAUUCUGCUGUAUAUCUC [C4U A20G A28C G30C C38A U43C] | 0.13
33 | UAAGAGGGGGCAACAACAGAAGCGUUCACGUCGCAGCCCCUGUCAGAUUCUGGUGAAUCUGCGAAUUCUGCUGUAUAUCUC [C4G C12A G16A] | 0.99
34 | UAAAAGGGGGCCACAGCAGAAGCGUCCUCGUCGCAGCCCCUGUCAGAUUCUGGUGAAUCUGCGAAUUCUGCUGCAUAUCUC [C4A U26C A28U U74C] | 0.61
